Test results: the GPR68 mutational scans of Howard et al. (2025)
Scores whose standard error is large were omitted. Not listed are two conditions whose scores span a narrow range. Names with del lack the residues named; names with ins carry added residues between the positions named. For some assays here: The data file names ogerin without a concentration.

B1: GPR68, Q15743 (parent)
chain: MGNITADNSSMSCTIDHTIHQTLAPVVYVTVLVVGFPANCLSLYFGYLQIKARNELGVYLCNLTVADLFYICSLPFWLQYVLQHDNWSHGDLSCQVCGILLYENIYISVGFLCCISVDRYLAVAHPFRFHQFRTLKAAVGVSVVIWAKELLTSIYFLMHEEVIEDENQHRVCFEHYPIQAWQRAINYYRFLVGFLFPICLLLASYQGILRAVRRSHGTQKSRKDQIQRLVLSTVVIFLACFLPYHVLLLVRSVWEASCDFAKGVFNAYHFSLLLTSFNCVADPVLYCFVSETTHRDLARLRGACLAFLTCSRTGRAREAYPLGAPEASGKSGAQGEEPELLTKLHPAFQTPNSPGSGGFPTGRLA

Assays:
[1] = variants of: B1; experiment: cAMP reporter score (Enrich2 score, wild type = 0); higher = more signal; HEK293T, FACS bins
[2] = variants of: B1; experiment: surface expression score (Enrich2 score, wild type = 0); higher = more signal; HEK293T, FACS bins

Variant	cAMP reporter score ([1]; pH 5.5)	cAMP reporter score ([1]; pH 6)	cAMP reporter score ([1]; pH 6, modulator: ogerin)	cAMP reporter score ([1]; pH 6.5, modulator: ogerin)	surface expression score [2]
K51Q	0.736	-0.23	0.286	-0.748	-0.074
K51W	-0.694	-0.853	-1.71	-0.803	-2.16
K51I	0.222	-0.979	0.032	-1.1	–
G46_Y47insG	-1.02	-0.291	-0.532	0.595	-2.11
Y44_F45del	-1.17	-1.37	-1.62	-0.922	-2.63
I50_K51insG	-0.236	–	-0.979	-0.738	-2.83
K51_A52insGS	-1.83	-0.762	-2.36	-1.23	-2.49
L48_Q49insG	-1.32	-1.02	-1.95	-0.751	-2.52
Y44del	-1.56	-1.32	-2.34	-1.3	-1.55
L48_Q49insGSG	-1.33	-0.706	-0.592	-0.13	-2.51
I50_A52del	-2.21	-0.214	-0.334	-0.34	-2.7
Y47_L48insGSG	-0.911	-0.761	-1.73	-1.34	-2.61
G46del	-0.757	-1.3	-1.26	-0.014	-1.96
R53V	-1.61	–	–	-0.963	-3.17
R53D	-0.343	–	0.01	-0.849	–
R53S	1.16	-1.01	1.15	-0.259	–

Variant	cAMP reporter score ([1]; pH 5.5)	cAMP reporter score ([1]; pH 6)	cAMP reporter score ([1]; pH 6, modulator: ogerin)	cAMP reporter score ([1]; pH 6.5, modulator: ogerin)	surface expression score [2]
R53M	-0.488	-0.197	-1.04	-0.119	-1.12
R53F	-0.33	-0.472	-1.11	-0.4	–
R53K	1.43	0.884	2.27	1.39	2.53
R53E	-0.395	-0.826	0.132	-0.108	-1.04
R53Y	-0.736	0.155	-0.988	-0.814	-0.584
R53T	-0.526	-0.422	-0.695	-0.435	–
R53C	-0.213	-0.718	-0.524	-0.586	-0.78
R53H	0.54	0.325	0.89	-1.06	–
R53L	-1.38	-0.822	-1.31	-1.38	-2.75
R53W	-0.658	-0.9	-0.41	-1.31	-2.04
R53A	-0.513	-0.892	-1.32	-1.5	-2.04
R53G	1.09	5.54	2.08	4.55	–
R53N	-0.434	-0.044	-0.086	0.578	-0.028
R53P	-1.1	-1.71	-0.437	-1.16	-1.8
R53I	-0.798	-0.89	0.151	-0.083	-1.59
F45del	-0.845	-0.745	-1.84	-1.2	-2.35
